# Inconclusive means that the source gave no clear call. Such entries were picked first, then a sample of the others. For some of these results: No potency is given beside an inconclusive call; the fits are too rough. Calls of active or inactive are those of the source. The call rests on the fitted dose curve; in most records, active means well fitted curve in the direction sought with a large enough effect; inconclusive means small, poorly fitted or top-dose-only effect, or another doubt; inactive means no such curve, though single readings can be large; an effect the other way counts as inactive or inconclusive.
# Tests used:
# [1] = qHTS for Inhibitors of the vitamin D receptor (VDR): Hit Validation using a Texas Red Assay (AID 602201); further: potency means the concentration at half of the fitted maximal effect
# Method in brief: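 Fluorescence polarization with 1.5 uM VDR-LBD, LG19078 and 7 nM Texas Red (final). After 2 hours at ambient temperature, read at Ex 595 nm/Em 615 nm.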
# [2] = qHTS for Inhibitors of the vitamin D receptor (VDR): Hit Validation using a Cytotoxicity Assay (AID 602204); further: nearly all actives have a fitted effect of over 75% in size;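 on potency: cells co-treated with VDR agonist LG190178 at 300 nM; potency means the concentration at half of the fitted maximal effect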
# Method in brief: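 Cytotoxicity is flagged by loss of ATP-dependent luminescence in cells treated 18 h with compound. Seeding density was 20,000 cells per well with 4 h pre-incubation; detection took 30 min.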
# [3] = target: Vitamin D3 receptor (Homo sapiens) (UniProt P11473); assay: qHTS for Inhibitors of the vitamin D receptor (VDR): Hit Validation using a Beta-Lactamase Assay (AID 602202); further: potency means the concentration at half of the fitted maximal effect
# Method in brief: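 Stably transfected HEK293 cells expressing VDR-GAL4 DNA-binding domain fusion with UAS-driven beta-lactamase reporter, activated by agonist LG190178; compounds incubated 18 h, then FRET beta-lactam substrate 2 h; cleaved substrate read at 447 nm emission.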
# [4] = target: Bifunctional 3'-5' exonuclease/ATP-dependent helicase WRN (Homo sapiens) (UniProt Q14191); assay: qHTS for Inhibitors of WRN Helicase: Confirmatory Assay for Cherry-picked Compounds. (AID 720497); further: series mostly up to about 57 µM; nearly all actives have a fitted effect of over 65% in size
# Method in brief: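 WRN at 20 nM final was preincubated with compound for 15 min at room temperature; the reaction was started with 100 nM forked duplex oligonucleotide and 2 mM ATP (final). Red fluorescence (ex 525/em 598 nm) was read kinetically, with inhibition normalized to enzyme-only and buffer-only wells.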
# [5] = target: DNA polymerase eta (Homo sapiens) (UniProt Q9Y253); assay: qHTS for Inhibitors of Polymerase Eta: Confirmatory Assay for Cherry-picked Compounds (AID 720502); settings: Pol eta primer extension, TAMRA/BHQ fluorescence, 10 min; further: potency means the concentration at half of the fitted maximal effect
# Method in brief: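 Enzyme at 10 nM is mixed with pin-transferred compound and left 15 min at room temperature. Substrate (50 nM final) is then added, and plates are read at 0 min and after 10 min.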
# Tags describe the fitted curve by direction and shape.
# Sequence of UniProt P11473 (P11473 whole entry, looked up, the tested form may be a part): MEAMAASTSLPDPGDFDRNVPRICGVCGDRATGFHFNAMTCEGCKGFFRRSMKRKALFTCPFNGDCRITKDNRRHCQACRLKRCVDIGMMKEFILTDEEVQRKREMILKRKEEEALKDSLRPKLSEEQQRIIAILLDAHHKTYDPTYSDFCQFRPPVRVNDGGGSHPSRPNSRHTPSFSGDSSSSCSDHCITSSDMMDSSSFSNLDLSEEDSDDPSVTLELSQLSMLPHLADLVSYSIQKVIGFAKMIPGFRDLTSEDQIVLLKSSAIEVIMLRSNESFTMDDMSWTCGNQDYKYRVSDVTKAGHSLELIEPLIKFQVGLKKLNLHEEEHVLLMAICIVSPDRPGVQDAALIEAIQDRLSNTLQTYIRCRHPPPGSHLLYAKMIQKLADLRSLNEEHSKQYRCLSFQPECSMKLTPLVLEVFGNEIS
# Sequence of UniProt Q14191 (Q14191 whole entry, looked up): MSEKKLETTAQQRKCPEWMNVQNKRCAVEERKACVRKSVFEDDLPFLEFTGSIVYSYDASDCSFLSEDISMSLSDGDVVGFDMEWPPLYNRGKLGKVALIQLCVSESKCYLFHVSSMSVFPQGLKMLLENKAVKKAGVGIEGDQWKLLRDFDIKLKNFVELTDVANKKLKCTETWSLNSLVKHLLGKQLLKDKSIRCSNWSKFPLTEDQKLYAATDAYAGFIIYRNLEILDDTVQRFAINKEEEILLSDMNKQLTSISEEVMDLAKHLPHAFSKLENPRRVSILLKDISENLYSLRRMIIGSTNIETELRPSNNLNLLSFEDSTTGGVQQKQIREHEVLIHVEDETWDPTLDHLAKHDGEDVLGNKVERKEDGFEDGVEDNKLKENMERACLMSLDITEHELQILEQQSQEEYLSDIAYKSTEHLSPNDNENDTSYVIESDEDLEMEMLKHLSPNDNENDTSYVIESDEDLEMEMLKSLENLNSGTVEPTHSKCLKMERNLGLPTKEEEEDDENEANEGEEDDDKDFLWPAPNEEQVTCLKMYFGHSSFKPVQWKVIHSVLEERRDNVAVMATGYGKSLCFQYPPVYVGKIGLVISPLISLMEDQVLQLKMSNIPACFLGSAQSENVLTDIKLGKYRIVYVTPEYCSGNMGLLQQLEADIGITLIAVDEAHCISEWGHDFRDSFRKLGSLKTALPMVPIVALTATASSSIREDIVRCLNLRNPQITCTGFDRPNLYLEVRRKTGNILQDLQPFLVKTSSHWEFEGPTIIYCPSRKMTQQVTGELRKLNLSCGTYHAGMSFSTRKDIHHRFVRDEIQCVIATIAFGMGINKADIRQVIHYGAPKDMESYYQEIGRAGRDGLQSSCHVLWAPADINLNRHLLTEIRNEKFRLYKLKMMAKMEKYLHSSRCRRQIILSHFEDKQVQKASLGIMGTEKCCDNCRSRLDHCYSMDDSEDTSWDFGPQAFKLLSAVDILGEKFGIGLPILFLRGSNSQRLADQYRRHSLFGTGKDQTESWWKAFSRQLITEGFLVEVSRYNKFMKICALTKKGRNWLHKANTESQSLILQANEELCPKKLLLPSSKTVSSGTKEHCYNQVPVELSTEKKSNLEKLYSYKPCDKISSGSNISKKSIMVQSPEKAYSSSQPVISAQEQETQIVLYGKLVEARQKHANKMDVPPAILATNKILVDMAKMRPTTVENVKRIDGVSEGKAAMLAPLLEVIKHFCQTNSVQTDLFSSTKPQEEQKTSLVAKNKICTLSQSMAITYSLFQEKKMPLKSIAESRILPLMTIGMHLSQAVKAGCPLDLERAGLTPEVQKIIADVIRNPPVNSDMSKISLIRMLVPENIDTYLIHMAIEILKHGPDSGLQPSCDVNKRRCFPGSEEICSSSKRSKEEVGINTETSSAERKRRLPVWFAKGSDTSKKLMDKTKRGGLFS
# Sequence of UniProt Q9Y253 (Q9Y253 whole entry, looked up): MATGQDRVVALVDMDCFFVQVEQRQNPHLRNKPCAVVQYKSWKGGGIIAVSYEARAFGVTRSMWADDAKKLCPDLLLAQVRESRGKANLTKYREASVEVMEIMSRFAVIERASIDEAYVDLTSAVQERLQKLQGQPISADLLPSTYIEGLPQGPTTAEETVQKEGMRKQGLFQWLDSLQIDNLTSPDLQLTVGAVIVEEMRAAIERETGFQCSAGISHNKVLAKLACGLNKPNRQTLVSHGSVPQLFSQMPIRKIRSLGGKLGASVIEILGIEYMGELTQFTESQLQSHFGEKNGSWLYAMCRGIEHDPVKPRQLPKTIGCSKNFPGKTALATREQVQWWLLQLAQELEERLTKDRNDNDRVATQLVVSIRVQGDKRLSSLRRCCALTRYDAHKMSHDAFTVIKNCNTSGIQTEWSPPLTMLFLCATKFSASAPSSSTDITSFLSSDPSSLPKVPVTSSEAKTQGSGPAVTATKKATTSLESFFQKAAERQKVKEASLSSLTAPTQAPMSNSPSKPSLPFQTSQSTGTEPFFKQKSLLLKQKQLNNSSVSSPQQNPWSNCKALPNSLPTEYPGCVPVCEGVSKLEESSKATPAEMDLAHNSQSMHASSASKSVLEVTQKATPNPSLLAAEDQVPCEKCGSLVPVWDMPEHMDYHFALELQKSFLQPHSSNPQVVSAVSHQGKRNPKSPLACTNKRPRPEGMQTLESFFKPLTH
compound,measurement,setting,value
CC(=O)N1CC[n+]2c(-c3ccc([N+](=O)[O-])cc3)csc21,Potency,[1],active: 7.08 µM
same,Potency,[2],inactive
O=S(=O)(/N=C(/Sc1ccccc1)c1ccccc1)c1ccc(Cl)cc1,Potency,[1],"inconclusive [inhibitor, single point]"
same,Potency,[2],"inconclusive [rising, full curve, poor fit]"
Cc1nc(-c2ccccc2)sc1C(=O)/C=C/c1ccccc1,Potency,[1],"inconclusive [inhibitor, full curve]"
same,Potency,[2],inactive
CCOC(=O)c1c2c(n(-c3ccc(OC)cc3)c1C)C(=O)C(=O)c1ccccc1-2,Potency,[3],active: 5.8 µM
same,Potency,[2],active: 6.31 µM
O=C(Nc1cc(S(=O)(=O)N2CCOCC2)ccc1N1CCCCC1)c1cc(-c2ccccn2)nc2ccccc12,Potency,[1],"inconclusive [inhibitor, full curve, poor fit]"
same,Potency,[2],inactive
COc1cccc(/C=C/C(=O)c2cccc([N+](=O)[O-])c2)c1OC,Potency,[3],"inconclusive [inhibitor, single point]"
same,Potency,[2],"inconclusive [cytotoxic, partial curve, poor fit]"
O=S(=O)(/N=C(\Sc1ccccc1)c1ccccc1)c1ccc(Cl)cc1,Potency,[1],"inconclusive [inhibitor, full curve]"
same,Potency,[2],"inconclusive [rising, full curve, poor fit]"
Cc1oc2c(c1C(=O)c1ccc(Cl)cc1)C(=O)C(=O)c1ccccc1-2,Potency,[1],active: 3.98 µM
same,Potency,[2],active: 3.77 µM
CC(=O)N(C1=C(Cl)C(=O)c2ccccc2C1=O)C1CCCCC1,Potency,[1],"inconclusive [inhibitor, full curve]"
same,Potency,[2],"inconclusive [cytotoxic, full curve, poor fit]"
same,Potency,[4],inactive
COc1ccc(C(=O)Oc2ccc(C(=S)N3CCOCC3)cc2)cc1,Potency,[1],"inconclusive [inhibitor, partial curve, poor fit]"
same,Potency,[2],inactive
Cc1cc(S(=O)(=O)c2ccc([N+](=O)[O-])cn2)ccc1Br,Potency,[2],"inconclusive [cytotoxic, partial curve, poor fit]"
Cc1cc(C)nc(S/C=C/C(=O)c2ccccc2F)n1,Potency,[1],active: 7.94 µM
same,Potency,[2],active: 16.8 µM
O=C(CCS(=O)(=O)c1nc(-c2ccc3c(c2)OCO3)cc(C(F)(F)F)n1)Nc1ccc(Br)cc1,Potency,[1],"inconclusive [inhibitor, partial curve]"
same,Potency,[2],"inconclusive [cytotoxic, single point]"
CCC(C)(C)n1nnnc1C(c1ccc(O)c(OC)c1)N1CCc2ccccc2C1 (stereo unspecified),Potency,[3],inactive
Cc1ccc2c(c1)C(=O)C(=O)N2Cc1ccc(C(F)(F)F)cc1,Potency,[2],"inconclusive [cytotoxic, single point]"
CCS(=O)(=O)c1ncc(Cl)c(C(=O)Nc2ccc(S(=O)(=O)N3CCC(C)CC3)cc2)n1,Potency,[2],active: 3.66 µM
CC1(C)CC(=O)C(C(C2=C(O)CC(C)(C)CC2=O)c2ccc(Br)s2)C(=O)C1 (stereo unspecified),Potency,[3],inactive
same,Potency,[2],"inconclusive [cytotoxic, single point]"
COc1ccc(CC2=CC(=O)c3ccccc3C2=O)cc1,Potency,[3],"inconclusive [inhibitor, single point]"
same,Potency,[2],active: 16.4 µM
CCn1nc(C)cc1-c1nnc(Sc2ncc([N+](=O)[O-])s2)n1C,Potency,[3],active: 3.66 µM
same,Potency,[2],"inconclusive [cytotoxic, full curve, poor fit]"
O=C(O)CN1C(=O)/C(=C\c2cc(Br)ccc2OCc2ccc(F)cc2)SC1=S,Potency,[1],inactive
same,Potency,[5],"inconclusive [inhibitor, single point]"
CS(=O)(=O)c1ccc(C(=O)OCc2nnc(-c3ccc(Cl)cc3)o2)cc1[N+](=O)[O-],Potency,[1],active: 8.91 µM
same,Potency,[2],"inconclusive [cytotoxic, single point]"
O=C(CCS(=O)(=O)c1nc(-c2cccs2)cc(C(F)(F)F)n1)Nc1cc(Br)ccc1O,Potency,[1],active: 5.62 µM
same,Potency,[2],"inconclusive [cytotoxic, single point]"
CSc1nnc(NC(=O)c2nc(S(=O)(=O)Cc3ccc(C)cc3)ncc2Cl)s1,Potency,[1],inactive
same,Potency,[2],active: 16.4 µM
CC(C)Oc1ccc(C(=O)/C=C2/C(=O)Nc3ccccc32)cc1,Potency,[2],"inconclusive [cytotoxic, single point]"
Cc1cc(C)c(S(=O)(=O)Nc2cc(SCC(=O)O)c(O)c3ccccc23)cc1C,Potency,[1],"inconclusive [inhibitor, single point]"
same,Potency,[2],"inconclusive [cytotoxic, single point]"

# Reference: PubChem BioAssay (NCATS)
